# Laboratory results taken from publication PMC6919601, “Identification of Plasmodium dipeptidyl aminopeptidase allosteric inhibitors by high throughput screening” (PLoS ONE, 2019).
# “And” between values parts separate entries of the source, which are not always exact repeats. Equal entries are not always repeated. Hit rate of the full screen: of about 110,000 compounds, about 230 (0.21%) showed an effect of 50% or more. The list shows a part of the results.
# Target: DPAP1 (Plasmodium falciparum, UniProt Q8IIJ9)
# Sequence (Q8IIJ9 whole entry, looked up): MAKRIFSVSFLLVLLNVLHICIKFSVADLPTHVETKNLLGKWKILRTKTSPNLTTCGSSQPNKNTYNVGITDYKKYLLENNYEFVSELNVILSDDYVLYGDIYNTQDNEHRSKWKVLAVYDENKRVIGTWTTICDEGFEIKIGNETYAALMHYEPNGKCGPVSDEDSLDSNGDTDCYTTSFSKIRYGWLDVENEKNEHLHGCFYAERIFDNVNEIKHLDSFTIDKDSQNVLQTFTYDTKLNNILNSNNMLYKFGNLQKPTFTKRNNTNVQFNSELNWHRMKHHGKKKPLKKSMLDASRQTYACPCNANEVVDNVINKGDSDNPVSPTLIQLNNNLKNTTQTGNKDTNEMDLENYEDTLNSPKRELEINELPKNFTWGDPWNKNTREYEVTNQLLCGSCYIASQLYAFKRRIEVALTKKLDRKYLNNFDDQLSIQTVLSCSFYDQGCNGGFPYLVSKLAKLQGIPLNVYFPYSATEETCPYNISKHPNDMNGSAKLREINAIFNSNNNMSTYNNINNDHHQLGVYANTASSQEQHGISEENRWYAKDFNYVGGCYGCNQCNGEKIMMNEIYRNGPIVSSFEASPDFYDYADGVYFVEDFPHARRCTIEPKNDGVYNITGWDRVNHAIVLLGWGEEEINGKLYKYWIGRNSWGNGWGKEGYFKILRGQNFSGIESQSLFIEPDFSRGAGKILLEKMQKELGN
# Test: primary screen, percent inhibition; read by cleavage of a fluorogenic dipeptide substrate; higher = more effect of the substance
# Set-up: species or system P. falciparum D10 trophozoite lysates; single well
# 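Further: 30 min substrate incubation versus DMSO and 10 µM JCP410 controls.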
row,SMILES,% Inhibition @ 10 uM
1,CCOc1ccc2sc(/C=N/Cc3ccc(F)cc3)c(O)c2c1,-0.48% and 5.24%
2,CCOC(=O)c1sc(NC(=O)CSc2nnc(-c3sc4ccccc4c3Cl)o2)nc1C,-5.85%
3,O=C(NCc1ccccc1)c1ccc(OC2CSC2)cc1,-1.33%
4,N#CC1=C(N)Oc2[nH]nc(-c3ccncc3)c2C1c1ccncc1 (stereo not drawn),3.92%
5,CCc1nnc(NC(=O)CSc2nc3c(c(=O)n2CCc2ccccc2)SC(C)C3)s1 (stereo not drawn),-4.81%
6,O=C(O)c1ccc(C(=O)c2ccc3c(c2)C(=O)N(CC2CCCO2)C3=O)cc1 (stereo not drawn),-1.81%
7,Cc1ccc(N2C(=O)c3ccc(C(=O)Nc4cccc(O)c4)cc3C2=O)cc1C,0.774%
8,Cc1ccc(CN2CCC(CNC(=O)CCc3nnc4ccc(N5CCC(C)CC5)nn34)C2)cc1 (stereo not drawn),3.77%
9,COc1ccccc1C1C2=C(O)CC(C)(C)CC2=NC(C)=C1C(=O)Nc1ccccn1 (stereo not drawn),-4.43%
10,CN1C(=O)c2ccc(C(=O)NCc3ccc(C(=O)O)cc3)cc2C1=O,5.44%
11,CC1(C)OC(=O)C(=CN2CCCC2C(=O)O)C(=O)O1 (stereo not drawn),3.59%
12,Oc1ccccc1-c1cc(-c2ccccc2)nc(N2CCCC2)n1,6.53%
13,CN(C)c1ccc(C2C(C(=O)c3ccc(Cl)cc3)=C(O)C(=O)N2Cc2ccco2)cc1 (stereo not drawn),-6.68%
14,O=C1c2ccccc2C(=O)c2c1nc1n2CCOC1,2.55%
15,Cc1ccccc1NC(=O)c1ccc(OC(C)C(=O)O)cc1 (stereo not drawn),-1.82%
16,O=CN1CCN(C2CCN(CCc3ccccc3)CC2)CC1,-4.08%
17,O=C(c1cccs1)N1CCN(Cc2ccccc2)CC1,-1.64%
18,O=C(NC1CCCCC1)n1c(=O)oc2ccc(Cl)cc21,-11.4%
19,CCc1ccc(CNc2ncnc3onc(-c4ccc(F)cc4)c23)cc1,1.92%
20,COc1ccc(C(=O)Nc2ccc(Cl)cn2)cc1Cl,-0.357%
21,CC1=NOC(=O)/C1=C/c1ccc(O)cc1,-1.6%

row,SMILES,% Inhibition @ 10 uM
1,O=C(O)CNC(=O)c1cn(-c2ccccc2)nc1-c1ccccc1,-4.61%
2,CCc1ccc(S(=O)(=O)c2nnn3c2nc(NCCOC)c2cc(Cl)ccc23)cc1,0.291%
3,CCOc1ccccc1NC(=O)c1cccc(Cl)c1,-4.26%
4,CCN(CC)S(=O)(=O)c1nnc(NC(=O)/C=C/c2ccccc2)s1,4.86%
5,C=C(C)CSc1nc(N)c2c3c(sc2n1)COC(C)(C)C3,1.01%
6,CC1(C)CC(=O)C2=C(C1)N(c1ccc(Br)cc1)C(N)=C(C#N)C2c1ccsc1 (stereo not drawn),2.38%
7,COc1cc(C(=O)NCCC(=O)NC2CCCc3ccccc32)cc(OC)c1OC (stereo not drawn),-4.06%
8,CCCCCc1nnc(NC(=O)OCCC)s1,3.74%
9,CCc1ccc(-c2cc3c(=O)n(CC(=O)NCc4ccccn4)nc(C)n3n2)cc1,-1.08%
10,O=C(c1cnn(-c2ccccc2)c1-n1cccc1)N1CCOCC1,0.137%
11,O=C(Cn1ncn2c(cc3ccccc32)c1=O)NCc1ccc2c(c1)OCO2,0.0198%
12,CC(C)N(CCCNC(=O)c1nn(C)c2c1CSc1ccccc1-2)Cc1ccccc1,-1.72%
13,Cc1cc(C)c2c(N)c(C(=O)c3ccc(F)cc3)sc2n1,-0.546%
14,CCOc1ccc(CN2CCNCC2CCO)cc1 (stereo not drawn),-2.91%
15,CCOc1ccc(OCCSc2nnnn2C2CCCCC2)cc1,-1.48%
16,CCOc1ccc(NC2=NC(=O)CC(C(=O)Nc3ccc(OC)cc3)N2)cc1 (stereo not drawn),3.56%
17,CC1=C(C(=O)OC(C)C)C(c2ccc(Cl)c(Cl)c2)N2C(=O)CCSC2=N1 (stereo not drawn),-7.58%
18,Cc1nnc(N2CCCC(C(=O)N3CCC(C)CC3)C2)c2nn(-c3ccc(Cl)cc3)c(C)c12 (stereo not drawn),3.42%
19,CC1CCCN(CCCNC(=O)Cn2nc(-c3ccccc3)ccc2=O)C1 (stereo not drawn),2.18%
20,O=c1cccc2n1CC1CC2CN(c2nc(Cl)nc(NCCN3CCOCC3)n2)C1 (stereo not drawn),2%
21,Cc1nn(C)c(C)c1CN(C)C(=O)c1cnn2c(C(F)F)cc(-c3ccccc3)nc12,2.22%

row,SMILES,% Inhibition @ 10 uM
1,COc1ccc(-c2cn3c(n2)sc2cc(C(=O)NCc4ccc5c(c4)OCO5)ccc23)cc1,3.54%
2,CC(=O)N1c2ccccc2C(Nc2ccccc2)CC1C (stereo not drawn),-0.424%
3,CN(c1ccc(C(=O)NCc2ccncc2)cc1)S(C)(=O)=O,-1.6%
4,COc1cc(/C=C2\N=C(c3cccc(F)c3)OC2=O)cc(OC)c1OC,6.11%
5,CCCCNC(=O)C(CC)Sc1nc2nnc(C)c-2c(N)n1-c1ccc(OC)cc1 (stereo not drawn),2.8%
6,C=CCN(CC=C)C(=O)C(c1ccccc1)c1ccccc1,1.55%
7,COC(=O)C1=C(C)NC(=O)CC1c1ccc(F)cc1F (stereo not drawn),-1.37%
8,CCc1ccc(C2C3=C(O)CC(C)(C)CC3=NC(C)=C2C(=O)OC)s1 (stereo not drawn),-0.13%
9,CNC(=O)CCCc1nnc2n(CC(C)C)c(=O)c3sccc3n12,4.23%
10,CC12CN3CC(C)(CN(C1)C3(C)CSc1c[nH]c3ccccc13)C2=O (stereo not drawn),7.2%
11,COc1ccc(-n2cc(-c3ccccc3)c3c(NCc4cccnc4)ncnc32)cc1,-1.44%
12,CSc1nc2c(c(=O)n(C)c(=O)n2C)n1Cc1ccc(Cl)cc1,-5.79%
13,COc1cc(NC(=O)c2ccc(N(C)C)cc2)c(Cl)cc1NC(=O)c1ccccc1,-1.65%
14,CCCCC(=O)Nc1cc(-c2nc3ncccc3o2)ccc1Cl,2.38%
15,COc1cccc2c(=O)cc(-c3ccc4c(c3)OCO4)n(C)c12,8.44%
16,CCC/N=c1\c(NS(=O)(=O)c2ccc(F)c(C)c2)c(O)oc2ccccc12,-2.41%
17,CC1CCN(C(=O)CCN2C(=O)c3ccccc3C2=O)CC1,2.06%
18,COc1ccc(C(=O)Nc2ncc(Cc3cccc(Cl)c3)s2)cc1OC,13%
19,CC(C)C[C@H](NC(=O)OC(c1ccccc1)C1CC1)C(=O)NCC#N (stereo partly drawn),-3.04%
20,CC(C)CNC(=O)c1cc(-c2ccccc2O)on1,0.628%
21,Cc1noc2ncnc(N3CCC(Cc4ccccc4)CC3)c12,-2.15%
